Test results published in the supplement of paper PMC4967469.

Columns and labels:
Test in all cases: Viability of human cancer cell lines after 72 h of drug (GDSC screen)
[1] = compound: CC(C)N(CCCNC(=O)Nc1ccc(C(C)(C)C)cc1)C[C@H]1O[C@@H](n2cc(Br)c3c(N)ncnc32)[C@H](O)[C@@H]1O [SGC0946]; details: top dose 0.5 µM; top dose inferred
Protocol: (§1)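 Human cancer cell lines in 384-well plates, medium with 10% serum, drug for 72 h over a 256-fold dose range (nine 2-fold or five 4-fold steps up to the top dose). Adherent lines were fixed and stained with the nucleic acid dye Syto60, suspension lines read with resazurin; signal relative to control wells, capped at 0 and 100%. One two-parameter sigmoid per drug and line, fitted in a mixed model over all curves with the slope shared within a line.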

[2] = compound: CCC/C=C/C=C/C(=O)O[C@H]1/C(=C/C(=O)OC)C[C@H]2C[C@H]([C@@H](C)O)OC(=O)C[C@H](O)C[C@@H]3C[C@H](OC(C)=O)C(C)(C)[C@](O)(C[C@@H]4C/C(=C/C(=O)OC)C[C@H](/C=C/C(C)(C)[C@]1(O)O2)O4)O3 [Bryostatin 1]; details: top dose 0.008 µM; top dose inferred
Protocol: as §1

[3] = compound: COc1ccc(COc2ccc(Cc3cnc(N)nc3N)cc2OC)cc1 [GW-2580]; details: top dose 20 µM; top dose inferred
Protocol: as §1

[4] = compound: Nc1cccc2c1CN(C1CCC(=O)NC1=O)C2=O [Lenalidomide]; details: top dose 5 µM; top dose inferred
Protocol: as §1

Row | Cell Line | AUC [1] | IC50 [1] [nM] | AUC [2] | IC50 [2] [nM] | AUC [3] | IC50 [3] [nM] | AUC [4] | IC50 [4] [nM]
1 | DB (B-cell lymphoma, suspension) | 0.981 | > 500 | 0.981 | > 8 | 0.978 | > 20000 | 0.946 | > 5000
2 | DBTRG-05MG (glioma, adherent) | 0.982 | > 500 | 0.939 | > 8 | 0.984 | > 20000 | 0.98 | > 5000
3 | DG-75 (Burkitt lymphoma, suspension) | 0.984 | > 500 | 0.981 | > 8 | 0.982 | > 20000 | 0.918 | > 5000
4 | DK-MG (glioma, adherent) | 0.974 | > 500 | 0.924 | > 8 | 0.978 | > 20000 | 0.974 | > 5000
5 | DMS-53 (small cell lung carcinoma, adherent) | 0.986 | > 500 | 0.947 | > 8 | 0.959 | > 20000 | 0.986 | > 5000
6 | DMS-79 (small cell lung carcinoma, suspension) | 0.985 | > 500 | 0.984 | > 8 | 0.964 | > 20000 | 0.986 | > 5000
7 | DND-41 (T-cell leukaemia, suspension) | 0.989 | > 500 | 0.979 | > 8 | 0.989 | > 20000 | 0.984 | > 5000
8 | DOK (head and neck, adherent) | 0.96 | > 500 | 0.972 | > 8 | 0.971 | > 20000 | 0.854 | > 5000
9 | DSH1 (bladder, adherent) | 0.988 | > 500 | 0.952 | > 8 | 0.972 | > 20000 | 0.989 | > 5000
10 | DU-145 (prostate, adherent) | 0.983 | > 500 | 0.956 | > 8 | 0.978 | > 20000 | 0.98 | > 5000
11 | DU-4475 (breast, suspension) | 0.992 | > 500 | 0.941 | > 8 | 0.992 | > 20000 | 0.992 | > 5000
12 | Daoy (medulloblastoma, adherent) | 0.987 | > 500 | 0.946 | > 8 | 0.979 | > 20000 | 0.961 | > 5000
13 | Detroit562 (head and neck, adherent) | 0.987 | > 500 | 0.988 | > 8 | 0.985 | > 20000 | 0.985 | > 5000
14 | DoTc2-4510 (cervix, adherent) | 0.987 | > 500 | 0.974 | > 8 | 0.985 | > 20000 | 0.983 | > 5000
15 | EBC-1 (lung squamous cell carcinoma, adherent) | 0.981 | > 500 | 0.983 | > 8 | 0.981 | > 20000 | 0.981 | > 5000
16 | ECC10 (stomach, suspension) | 0.977 | > 500 | 0.973 | > 8 | 0.982 | > 20000 | 0.982 | > 5000
17 | EFM-19 (breast, adherent) | 0.967 | > 500 | 0.851 | > 8 | 0.968 | > 20000 | 0.977 | > 5000
18 | EFM-192A (breast, adherent) | 0.984 | > 500 | 0.808 | 4.7 | 0.985 | > 20000 | 0.985 | > 5000
19 | EFO-21 (ovary, adherent) | 0.977 | > 500 | 0.979 | > 8 | 0.978 | > 20000 | 0.98 | > 5000
20 | EFO-27 (ovary, adherent) | 0.978 | > 500 | 0.974 | > 8 | 0.975 | > 20000 | 0.967 | > 5000
21 | EGI-1 (biliary tract, adherent) | 0.98 | > 500 | 0.964 | > 8 | 0.975 | > 20000 | 0.953 | > 5000
22 | EJM (lymphoid neoplasm, semi-adherent) | 0.992 | > 500 | 0.992 | > 8 | 0.992 | > 20000 | 0.992 | > 5000
23 | EKVX (lung adenocarcinoma, adherent) | 0.95 | > 500 | 0.833 | > 8 | 0.966 | > 20000 | 0.926 | > 5000
24 | EN (endometrium, adherent) | 0.982 | > 500 | 0.976 | > 8 | 0.977 | > 20000 | 0.976 | > 5000
25 | EPLC-272H (lung squamous cell carcinoma, adherent) | 0.979 | > 500 | 0.979 | > 8 | 0.956 | > 20000 | 0.983 | > 5000
26 | ES6 (Ewing sarcoma, adherent) | 0.975 | > 500 | 0.948 | > 8 | 0.971 | > 20000 | 0.981 | > 5000
27 | ES-2 (ovary, adherent) | 0.99 | > 500 | 0.987 | > 8 | 0.987 | > 20000 | 0.988 | > 5000
28 | ESS-1 (endometrium, adherent) | 0.987 | > 500 | 0.978 | > 8 | 0.989 | > 20000 | 0.989 | > 5000
29 | ETK-1 (biliary tract, adherent) | 0.979 | > 500 | 0.979 | > 8 | 0.983 | > 20000 | 0.972 | > 5000
30 | EVSA-T (breast, adherent) | 0.99 | > 500 | 0.989 | > 8 | 0.97 | > 20000 | 0.991 | > 5000

The IC50 comes from the fitted curve, where viability falls to half of the control; where the fit passes the top or lowest dose, that dose stands as a limit. AUC is the area under the same curve over the 256-fold range up to the top dose, as a fraction; values near 1 show little effect. Any top dose called inferred is not printed in the source and was worked back from the curve model.
